Counter-ions that a name gives are not always drawn. The list shows a part of the results. The data scatter; read single values as rough.
These molecules were tested on MKN45 (assay: ALDHbr (CSC) cell proportion score relative to DMSO vehicle (ratio to DMSO); breast (SUM159) / gastric (MKN45) / pancreatic (PANC1) / colon cancer lines; ALDHbr cells have high ALDH activity and are rich in cancer stem cells (CSC); higher = more CSC (ALDHbr) cells remaining). Details: 10 µM; 72 h.
`CC(C)c1cccc(C(C)C)c1O` [Propofol] gave an ALDHbr of 0.925. Molecule `C[N+](C)(C)CCCCCCCCCC[N+](C)(C)C` [Decamethonium bromide] has an ALDHbr of 0.954. With `O=c1[nH]c2ccccc2n1CCCN1CCC(n2c(=O)[nH]c3cc(Cl)ccc32)CC1` [Domperidone] the ALDHbr was 0.976. For `OC(c1ccccc1)(c1ccccc1)C1CCNCC1` [Azacyclonol], the ALDHbr was 1.13. `NC(=O)CN1CCCC1=O` [Piracetam] gave an ALDHbr of 1.08. `C[N+]1(C)CCOC(O)(c2ccc(-c3ccc(C4(O)C[N+](C)(C)CCO4)cc3)cc2)C1` (stereo not drawn) [Hemicholinium bromide] was tested, and the ALDHbr was 1.02. `CC(=O)NC1CCSC1=O` (racemic) [N-Acetyl-DL-homocysteine Thiolactone] gave an ALDHbr of 1.02. `CC(=O)OCC(=O)[C@H]1CC[C@H]2[C@@H]3CC[C@H]4C[C@H](O)CC[C@]4(C)[C@H]3C(=O)C[C@]12C` [Alfadolone acetate] showed an ALDHbr of 1.06. With `CC(C)N(CCC(C(N)=O)(c1ccccc1)c1ccccn1)C(C)C` (stereo not drawn) [Disopyramide] the ALDHbr was 1.27. Work on `CNC(=O)Oc1ccc2c(c1)[C@]1(C)CCN(C)[C@@H]1N2C` [Eserine hemisulfate salt] yielded an ALDHbr of 1.03. In the case of `Oc1ccc2c3c1O[C@H]1[C@@H](O)CC[C@@]4(O)[C@@H](C2)N(CC2CCC2)CC[C@]314` [Nalbuphine hydrochloride], the ALDHbr is reported as 0.853. Molecule `CC[C@@H](CO)NC(=O)[C@@H]1C=C2c3cccc4[nH]cc(c34)C[C@H]2N(C)C1` [Methylergometrine maleate] has an ALDHbr of 0.986. In the case of `CO[C@]12C[C@@H](COC(=O)c3cncc(Br)c3)CN(C)[C@@H]1Cc1cn(C)c3cccc2c13` [Nicergoline], the ALDHbr is reported as 1.2.

Reference: the supplement of paper PMC11880418
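Further: High-content imaging of ALDEFLUOR-stained cells with Hoechst-labelled nuclei in 384-well plates, triplicate wells, scored as Z-score against 0.1% DMSO vehicle, negative meaning fewer ALDHbr cells.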
